The other results are listed elsewhere or left out.

The chains are these.
T1: UNK ZnF1-3 (human, UniProt Q9C0B0 31-174)
T1 sequence: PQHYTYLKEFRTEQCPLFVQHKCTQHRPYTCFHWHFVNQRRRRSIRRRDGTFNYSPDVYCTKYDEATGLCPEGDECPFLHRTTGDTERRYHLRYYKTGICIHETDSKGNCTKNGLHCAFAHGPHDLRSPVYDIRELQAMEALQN

B1: chr5:145598128:145598129:+_ENSMUSG00000045482_ENSMUST00000132925|mus_mus|FALSE|FALSE (ssRNA)
RNA: GGGAGUUCUACAGUCCGACGAUCGAGGUGUAUGCACAUGGGACACCACGUGGGGCAGCCGCCUCCACUCACGGAUAGCCAAGCUGCUGGCCAUCUCCACCAGGCGCUCAAUGAAGCUGAGCUGCUGUUCCUCGGGGUGGCAAACAACAGAGGAUUGAGCAUCA
B2: chr12:53619734:53619735:+_ENSMUSG00000035133_ENSMUST00000110725|mus_mus|FALSE|FALSE (ssRNA)
RNA: GGGAGUUCUACAGUCCGACGAUCUAUAUACCCAUGAACCAGUUCAUCUUUUCUUACUCCAAUUGAGGAGUGGUAUGACAAUAUUGUGAUCUGUAUUCGCCUCCUUUUUUCACCAAUAAUUUUGUCAAGCAUUAAAGAAUUAUUCAACAGAGGAUUGAGCAUCA
B3: 23631571_23631691_891_3pUTR_ENSG00000182247_ENST00000335798|human|control|control (ssRNA)
RNA: GGGAGUUCUACAGUCCGACGAUCACAACAAAAAAAACAAAACCACACAGUAAUACAAAGCUUUGUAAGAAAGCUCUUACUAUUACAGCUCCAACAUUGUUUGCACUGAAAACAAAAGUUCCCAUCUAUGAUGAGGUGGGAAAACAACAGAGGAUUGAGCAUCA
B4: chr11:100882373:100882374:+_ENSMUSG00000019302_ENSMUST00000044721|mus_mus|mus_mus_mus_hu_True|38_38 (ssRNA)
RNA: GGGAGUUCUACAGUCCGACGAUCUUCCUGGUUUGUGUUGAUUUCCUUCAGUUCAUUUUCAAUCUUCUCAAAAUUGGCCUCUAAGUCAAUCAUGUCCCGAGGGAAGGGAACCUCUGGGUUUUCACCGGUGUCCAUAAUCGGAAUCAACAGAGGAUUGAGCAUCA
B5: chr8:95500983:95500984:-_ENSG00000164944_ENST00000437199|hu_hu|hu_hu_hu_mus_True|28_78 (ssRNA)
RNA: GGGAGUUCUACAGUCCGACGAUCAGAACACAUCUAUCGAGUAAAGGACCGUACAUGGACGACCUCUCCACUGCCUCCACUAACAAACUUUCCUCUCGAGCCUCCACCUGCCGCUAUUGUACUAGCCCAGGACGGUCCCAGGCCCAACAGAGGAUUGAGCAUCA
B6: 18846305_18846425_8591_CDS_ENSG00000157106_ENST00000446231|human|control|control (ssRNA)
RNA: GGGAGUUCUACAGUCCGACGAUCUUCAAUUUCUUUCAACUGAUCUUCACAAACUGGCACAGUGACAGCUUCCUGUUUCAAGCGUUCCACUUGUCUAAUAAGUCUGCUGUUGAUGUCUGCUGCGUAUCGCUGCAGGGUCAUUUCCAACAGAGGAUUGAGCAUCA
B7: chr2:5814250:5814251:-_ENSMUSG00000025816_ENSMUST00000102981|mus_hu|mus_mus_mus_hu_True|38_38 (ssRNA)
RNA: GGGAGUUCUACAGUCCGACGAUCUUCCUUUCCGGUUUCUGAAUUUCUGGUAGAACUGCACAGAAUGGUUUGAUAACUUCUAAAAAUUUGAUGCCCAUGGCGGCGGCUGGGGAGGCCCAGGGGGAAACCGCGGCCUCGGCGCUGCAACAGAGGAUUGAGCAUCA
B8: 58038583_58038703_312_CDS_ENSMUSG00000024597_ENSMUST00000115366|mouse|control|control (ssRNA)
RNA: GGGAGUUCUACAGUCCGACGAUCCACCUGGAAGCGGCUCUGGCUGGGGGUGGGCCCCAGAGGUCUGCCCAGCCCAUCGCCCGCCGCUGGGGUUCCCUCUCCGCGCACCCCGCCGCCAGCCUGCCUCCCAGCCGUAGUAGCAUCCAACAGAGGAUUGAGCAUCA
B9: chr7:135612270:135612271:-_ENSG00000105887_ENST00000393085|hu_mus|hu_hu_hu_mus_False|8_8 (ssRNA)
RNA: GGGAGUUCUACAGUCCGACGAUCGUUUUUUUCUGAGAUGUUAAAUAGUACUUCAGUGGAAAACAAAACUUAACCUUUUAUUAAUGCGUGUUGUACCAAAAGCAGACAUUUUAGCUUCAUUUAUUCACUCAAAAUAUCAUUAAGCAACAGAGGAUUGAGCAUCA
B10: chr1:163116941:163116942:-_ENSG00000143248_ENST00000313961|hu_hu|FALSE|FALSE (ssRNA)
RNA: GGGAGUUCUACAGUCCGACGAUCUACAAGCUGAAGAUAUCUUAAUUAAUAACAGGGCAGGAAGAAUUGAGUGGGGAAAGAAGGCCUUCGGACAGUAGAUAAGUAUCCAAAGCAGUGUGGGCAAAAAGAGUAAGCAACAUCCCCCAACAGAGGAUUGAGCAUCA
B11: chr5:102612083:102612084:+_ENSG00000181751_ENST00000319933|hu_hu|FALSE|FALSE (ssRNA)
RNA: GGGAGUUCUACAGUCCGACGAUCUAGAUUGAGGUAGUCCAGAGAUUUGGAGUGAGCCCUCUUACCUUUAAGAAGACAAAGAGGCAGAGGCCCAUGGAGGGCCUUGUAAGGUUCAUAAGGUAAAGAUUUAGUGCACUUGUCUCCCAACAGAGGAUUGAGCAUCA
B12: chr1:82725849:82725850:+_ENSMUSG00000026150_ENSMUST00000078332|mus_mus|motif|central (ssRNA)
RNA: GGGAGUUCUACAGUCCGACGAUCGGACCCUCAUUCGCUGACUAAUACCUUCGGUGUAUUCCAUUUCAUACUGAAUUCGACGGAUUUCUGCCAUCUCAGCAGCAGUGGGAGAAGGAAAUGCUGCCCCACUCACCAAAUGUGAAACAACAGAGGAUUGAGCAUCA
B13: 120566793_120566913_4174_3pUTR_ENSMUSG00000032890_ENSMUST00000071093|mouse|control|control (ssRNA)
RNA: GGGAGUUCUACAGUCCGACGAUCCUGCUGAAGAGGUGAUGUUCAGAGUCUGGUGAGCUGAGAGGCAAGAUGAGAGCGCCUCUGGAGCCGGUUCCUCCCCAAAGGAUCAAAUGUCCCUGUCAAACCAAGACUUGGCCCAUUUCCCAACAGAGGAUUGAGCAUCA
B14: chr1:163115838:163115839:-_ENSG00000143248_ENST00000313961|hu_hu|motif|central (ssRNA)
RNA: GGGAGUUCUACAGUCCGACGAUCUGGCUUAGUUUGAUUCUGUUACUAAAUUCUGUGAAUCAUUAUUUAAUCAAAUCGGCGGAAGAUUAGAAAAAAUUCUAGCAAGACUUAUAAUCAUGAAAUACAGAAUUAAAAGUUUAAACCCAACAGAGGAUUGAGCAUCA
B15: chr7:97836282:97836283:+_ENSG00000164715_ENST00000297293|hu_hu|motif|central (ssRNA)
RNA: GGGAGUUCUACAGUCCGACGAUCAGGGAGGGAGGUGUGAGGUCGCCCAUGACCACAGGGGCUCGUGACGAUGUGACGAAGCGGCACUGGGAGCACUCGGGCCCUUUCAAAGCCAGAAGAGAACCUGGGGCUUAAUGCAGAACGCAACAGAGGAUUGAGCAUCA
B16: chr8:117878989:117878990:-_ENSG00000164754_ENST00000297338|hu_hu|hu_hu_hu_mus_True|48_68 (ssRNA)
RNA: GGGAGUUCUACAGUCCGACGAUCCCAGAGGCCCUCGUUUACUGAGGACAAAAUGUGCGUAGAACAUUGUUCUGGCUUGCUAUGAAAACAGAAGAAACCUGGAUCUCGGCGGGGAGCCGGGAGGGGUGGGUGGCCCGGGGAGGGCAACAGAGGAUUGAGCAUCA
B17: chr19:47656230:47656231:+_ENSG00000142230_ENST00000270225|hu_hu|FALSE|FALSE (ssRNA)
RNA: GGGAGUUCUACAGUCCGACGAUCUAGAUUGGCAAAUGUGUAUCCAUGGUAGCCAAAAACAUCUCCUGUAAAGAACUUGAUGCUAUUUUUGUGACAGAUCUGGUCAACUUUAACUAUGACAUCCCUGGAGCAGCAAGUCAGACACAACAGAGGAUUGAGCAUCA
B18: chr3:10015032:10015033:+_ENSMUSG00000027533_ENSMUST00000029046|mus_mus|mus_mus_mus_hu_True|78_78 (ssRNA)
RNA: GGGAGUUCUACAGUCCGACGAUCGUUUUUACCAUCACAAGUGAUGAUACAAUCUGGCUUGGCCAUGGCGCCCAUUUUUCGCAAAGCUAUUCCCACUCCUAGCUCCUUCAUGUAUUCAUCAAAGCCUUUGCUGUCCACCAGGCGCAACAGAGGAUUGAGCAUCA
B19: chr13:51516861:51516862:+_ENSMUSG00000067586_ENSMUST00000087978|mus_mus|motif|central (ssRNA)
RNA: GGGAGUUCUACAGUCCGACGAUCCUUGGUGACAUAGAGAAGGGCAAGGCCAAUGAUGGAGCAGAACUUCUUGGCAGUGACCGGUAUACACCAGGAGUGACAUGAGGGGAAGUCUUUAGUUAGUCAGACCAGGGUUACCUAAGGCAACAGAGGAUUGAGCAUCA
B20: chr2:91395433:91395434:+_ENSMUSG00000040549_ENSMUST00000099716|mus_hu|motif|central (ssRNA)
RNA: GGGAGUUCUACAGUCCGACGAUCUGGCUUAAGCAAGAUGAUUUUGGAACCAAAUUCACUUAAGGCUUUCCUCAGUGUCUCGGUACAGGCCACUAUGAUCUUGGGAUUCUUAUUGUCCAAGCCUUUCAGGAGCUCUUCUUGAACCAACAGAGGAUUGAGCAUCA
B21: 37392173_37396547_463_3pUTR_ENSG00000082068_ENST00000265107|human|control|control (ssRNA)
RNA: GGGAGUUCUACAGUCCGACGAUCGUAAAGGAGGGCCAAUUAACUCAUCAUCAGAAGAGUCAGAACUCUGUUCACUUUCACUGCUGCUCGUAUCCCUGGAAGAUGAUUUGGAGCAAUCUCUGACCACAUUUGAUCUUGAGGAUGCAACAGAGGAUUGAGCAUCA
B22: 92123618_92123828_3054_CDS_ENSG00000127980_ENST00000248633|human|control|control (ssRNA)
RNA: GGGAGUUCUACAGUCCGACGAUCAGGACAGUAUACACAUUUAUCUAGUCGACCAGGCCUAAGCAGGGCAGGGUCAAUCAAGUCAGGGCGACUAGUAGCAGCCAAUACAUAAACACCCUGUAAGCCUUCUACUCCAUCCAACUGCAACAGAGGAUUGAGCAUCA

This experiment has as its target T1, UNK ZnF1-3. In words: nsRBNS (natural sequence RNA bind-n-seq); RBNS binding buffer (assumed for nsRBNS): 25 mM Tris pH 7.5, 150 mM KCl, 3 mM MgCl2, 0.01% Triton X-100, 500 ug/ml BSA, 20 U/ml SUPERase-In, 4 C; UNK is unkempt and MSI1 is Musashi-1; names of the RNAs are library labels; protein concentration not given here; high values mean tight binding.
B1 had a binding signal of 0.898 enrichment R.

B2 came in with a binding signal of 0.891 enrichment R.

Take B3: the binding signal is 0.612 enrichment R.

B4 showed a binding signal of 0.542 enrichment R.

B5 registered a binding signal of 1.38 enrichment R.

B6: the binding signal worked out at 0.47 enrichment R.

Molecule B7 returned a binding signal of 1.06 enrichment R.

B8 returned a binding signal of 1.13 enrichment R.

For the molecule B9, the binding signal worked out at 0.523 enrichment R.

For the molecule B10, the binding signal came to 2.84 enrichment R.

For B11, the binding signal amounted to 1.61 enrichment R.

Turning to B12, the binding signal was 0.919 enrichment R.

Turning to B13, the binding signal was 1.59 enrichment R.

The molecule B14 yielded a binding signal of 1.14 enrichment R.

As for B15, the binding signal is 1.34 enrichment R.

B16: the binding signal was 1.56 enrichment R.

Take B17: the binding signal stood at 1.07 enrichment R.

For the molecule B18, the binding signal is 0.827 enrichment R.

B19: the binding signal stood at 1.34 enrichment R.

B20 displayed a binding signal of 0.948 enrichment R.

With B21, the binding signal was found to be 1.16 enrichment R.

Take B22: the binding signal came out at 0.803 enrichment R.

These data come from publication PMC12136788.
